Assay results: US7592316B2, “Peptides as NS3-serine protease inhibitors of hepatitis C virus” (Schering Corporation, priority 2000, dated 2009)

The molecules below were run against HCV NS3/NS4A protease (strain 1a) (Hepatitis C virus genotype 1a, UniProt P27958) (assay: biochemical). Conditions: Compounds prepared by Solid Phase Synthesis, Table 3; read-out: Ki* CLASS.

| SMILES | pKi |
| --- | --- |
| CCCC(NC(=O)[C@@H]1C[C@@H](OC(C)(C)C)CN1C(=O)[C@@H](NC(=O)c1ccccc1C(=O)O)C1CCCCC1)C(=O)C(=O)NCC(=O)NC(CC(N)=O)c1ccccc1 (stereo partly drawn) | < 6.00 |
| CCCC(NC(=O)[C@@H]1C[C@@H](OC(C)(C)C)CN1C(=O)[C@@H](NC(=O)C1CCCC1)C1CCCCC1)C(=O)C(=O)NCC(=O)N[C@H](C(N)=O)c1ccccc1 (stereo partly drawn) (Cyclopentanecarbonyl-[Chg][Hyp](tBu)[X2]G[Phg]-NH2) | 6.00 to 7.00 |
| CCCC(NC(=O)[C@@H]1C[C@@H](OCc2ccccc2)CN1C(=O)C(NC(=O)CC(C)CC(=O)O)C1CCCCC1)C(=O)C(=O)NCC(=O)NC(C(=O)O)c1ccccc1 (stereo partly drawn) (X86-[ξChg][Hyp](Bn)[X2]G[ξPhg]-OH) | 7.00 to 9.00 |
| CCCC(NC(=O)[C@@H]1C[C@@H](OCc2ccccc2)CN1C(=O)[C@H](CCCC(=O)O)NC(=O)c1ccccc1C(N)=O)C(=O)C(=O)NCC(=O)N[C@H](C(N)=O)c1ccccc1 (stereo partly drawn) (X59-[Aad][Hyp](Bn)[X2]G[Phg]-NH2) | 6.00 to 7.00 |
| CCCC(NC(=O)[C@@H]1C[C@@H](OCc2ccccc2)CN1C(=O)[C@H](CCCNC(=O)CCC(=O)O)NC(=O)OCC(C)C)C(=O)C(=O)NCC(=O)N[C@H](C(N)=O)c1ccccc1 (stereo partly drawn) (Isobutyloxycarbonyl-[Orn](Suc)[Hyp](Bn)[X2]G[Phg]-NH2) | < 6.00 |
| CCCCC(NC(=O)[C@@H]1C[C@@H](OC(C)(C)C)CN1C(=O)[C@@H](NC(=O)OC(C)(C)C)c1ccccc1)C(=O)C(=O)NCC(=O)N[C@H](C(N)=O)c1ccccc1 (stereo partly drawn) (Boc-[Phg][Hyp](tBu)[X4]G[Phg]-NH2) | < 6.00 |
| CCCC(NC(=O)[C@@H]1C[C@@H](OC(C)(C)C)CN1C(=O)[C@@H](NC(=O)OC(C)(C)C)C1CCCCC1)C(=O)C(=O)NCC(=O)N[C@@H](CC(=O)OC(C)(C)C)C(N)=O (stereo partly drawn) (Boc-[Chg][Hyp](tBu)[X2]GD(OtBu)-NH2) | < 6.00 |
| CCCC(NC(=O)[C@@H]1C[C@@H](OC(C)(C)C)CN1C(=O)[C@@H](NC(=O)[C@@H](NS(C)(=O)=O)C(C)C)C1CCCCC1)C(=O)C(=O)NCC(=O)NC(C(N)=O)c1cccc(OC)c1OC (stereo partly drawn) (Ms-V[Chg][Hyp](tBu)[X2]G[ξPhg(2,3-(OMe)2)]-NH2) | 6.00 to 7.00 |
| CCCCC(NC(=O)CNC(=O)C(=O)C(CCC)NC(=O)[C@@H]1C[C@@H](OCc2ccc(Cl)c(Cl)c2)CN1C(=O)C(NC(=O)OCC(C)C)C1CCCCC1)C(N)=O (stereo partly drawn) (Isobutyloxycarbonyl-[ξChg][Hyp](Benzyl(3,4-Cl2))[X2]G[ξNle]-NH2) | 6.00 to 7.00 |
| CCCCC(NC(=O)CNC(=O)C(=O)C(CCC)NC(=O)[C@@H]1C[C@@H](OCC(=O)OC(C)(C)C)CN1C(=O)C(NC(=O)C(CCC)CCC)C1CCCCC1)C(N)=O (stereo partly drawn) ({Pentanoyl(2-Pr)}-[ξChg][Hyp](CH2CO2tBu)[X2]G[ξNle]-NH2) | < 6.00 |

Same assay, conditions: HCV protease continuous assay results, Table 1; read-out: Ki* Range

| pKi | SMILES |
| --- | --- |
| < 6.00 | CC[C@H](C)C(NC(=O)[C@@H]1C[C@@H](OC(C)(C)C)CN1C(=O)C(NC(=O)OCC(C)C)C(C)(C)C)C(=O)C(=O)NCC(=O)OC (stereo partly drawn) [Example 235] |
| 7.00 to 9.00 | CCCC(NC(=O)[C@@H]1CC2(CN1C(=O)C(NC(=O)OC(C)(C)C)C(C)(C)C)SCCCS2)C(=O)C(=O)NCC(=O)NC(CO)c1ccccc1 (stereo partly drawn) [Example 220] |
| 6.00 to 7.00 | CCCC(NC(=O)[C@@H]1CC2(CN1C(=O)C(NC(=O)OC(C)(C)C)C(C)(C)C)SCCCS2)C(=O)C(=O)NCC(=O)NC(CO)CC1CCCCC1 (stereo partly drawn) [Example 242] |
| < 6.00 | CCCC(NC(=O)[C@@H]1CC2(CN1C(=O)C(NC(=O)OCC(C)C)C1CCCCC1)SCCS2)C(=O)C(=O)NCC(=O)O (stereo partly drawn) [Example 75] |
| < 6.00 | CCCC(NC(=O)[C@@H]1[C@@H]2[C@H](CN1C(=O)[C@@H](NC(=O)OC(C)(C)C)C(C)(C)C)C2(C)C)C(=O)C(=O)N(C)C (stereo partly drawn) [Example 322] |

| SMILES | pKi |
| --- | --- |
| C=CCOC(=O)CNC(=O)C(=O)C(CCC)NC(=O)[C@@H]1CCCN1C(=O)[C@@H](NC(=O)[C@@H](NC(=O)OCC(C)C)C(C)C)C(C)C (stereo partly drawn) [Example 34] (Isobutyloxycarbonyl-VVP[X2]G-OAll) | < 6.00 |
| C=CCOC(=O)CNC(=O)C(=O)C(CCC)NC(=O)[C@@H]1CCCN1C(=O)[C@@H](NC(=O)[C@@H](NC(=O)OC(C)(C)C)C(C)C)C(C)C (stereo partly drawn) [Example 33] (Boc-VVP[X2]G-OAll) | < 6.00 |
| CC(C)COC(=O)N[C@H](C(=O)N1C[C@H](OC(C)(C)C)C[C@H]1C(=O)NC1(C(=O)C(=O)NCC(=O)N[C@H](C(=O)N(C)C)c2ccccc2)CCCCC1)C(C)(C)C [Example 234] (Isobutyloxycarbonyl-[Tle][Hyp](tBu)[X104]G[Phg]-NMe2) | < 6.00 |

Same assay, conditions: Table 4; HCV NS3/NS4A protease, spectrophotometric assay, 30° C., pH 6.5; read-out: Ki* Range

| SMILES | pKi |
| --- | --- |
| CCCC(NC(=O)C1C[C@@H](NS(=O)(=O)c2cccc(Cl)c2)CN1C(=O)[C@@H](NC(=O)OCC(C)C)C1CCCCC1)C(=O)C(=O)NCC(=O)N[C@H](C(N)=O)c1ccccc1 (stereo partly drawn) | 6.00 to 7.00 |

Same assay, conditions: Table 5; HCV NS3/NS4A protease, 30° C., pH 6.5; read-out: Ki* Range

| pKi | SMILES |
| --- | --- |
| 6.00 to 7.00 | C=CCCC(NC(=O)[C@@H]1[C@H]2[C@@H](CN1C(=O)[C@@H](NC(=O)NS(=O)(=O)c1ccccc1)C1Cc3ccccc3C1)C2(C)C)C(=O)C(=O)NCC=C (stereo partly drawn) |
| < 6.00 | C=CCNC(=O)C(=O)C(CCC)NC(=O)[C@@H]1CC(OS(=O)(=O)c2ccc(CN)cc2)CN1C(=O)[C@@H](NC(=O)NC(C)(C)C)C1CCCCC1 (stereo partly drawn) |
| 7.00 to 9.00 | C=CCNC(=O)C(=O)C(CCC)NC(=O)[C@@H]1[C@@H]2[C@H](CN1C(=O)C(NC(=O)OC1C3(C)CCC(C3)C1(C)C)C1CCCCC1)C2(C)C (stereo partly drawn) |
| 6.00 to 7.00 | C=CCNC(=O)C(=O)C(CCC)NC(=O)[C@@H]1[C@H]2[C@@H](CN1C(=O)[C@@H](NC(=O)OC(C)(C)C)C1CC3CCCCC3C1)C2(C)C (stereo partly drawn) |

Same assay, conditions: Table 5; HCV NS3/NS4A protease, spectrophotometric assay, 30° C., pH 6.5; read-out: Ki* Range

| pKi | SMILES |
| --- | --- |
| < 6.00 | COC(=O)C(=O)C(CC1CC1)NC(=O)[C@@H]1[C@@H]2[C@H](CN1C(=O)[C@@H](NC(=O)OC(C)(C)C)C(C)(C)C)C2(C)C (stereo partly drawn) |

pKi: −log10 of the molar value. *1 amine or outer side, *2 acyl side, *3 side chain or, on linkers, in order; H or OH if unused. Where a SMILES comes first, the peptide text is derived from it. [ ]: non-standard residue; d: D form. The star is where a group is joined. ξ: configuration not given here. ξPhg(2,3-(OMe)2) = COc1cccc(C(N)C(=O)O)c1OC; X104 = O=C(C(=O)[*:2])C1(N[*:1])CCCCC1; Cyclopentanecarbonyl = O=C(C1CCCC1)*; Isobutyloxycarbonyl = CC(C)COC(=O)*; Benzyl(3,4-Cl2) = Clc1ccc(C*)cc1Cl; Pentanoyl(2-Pr) = CCCC(CCC)C(=O)*; X4 = CCCCC(N[*:1])C(=O)C(=O)[*:2]; Hyp = O=C(O)[C@@H]1C[C@@H](O)CN1; X2 = CCCC(N[*:1])C(=O)C(=O)[*:2]; Aad = N[C@@H](CCCC(=O)O)C(=O)O; CH2CO2tBu = CC(C)(C)OC(=O)C*; Chg = N[C@H](C(=O)O)C1CCCCC1; Phg = N[C@H](C(=O)O)c1ccccc1; Suc = O=C(CCC(=O)[*:2])[*:1]; Tle = CC(C)(C)[C@H](N)C(=O)O; X59 = NC(=O)c1ccccc1C(=O)*; ξChg = NC(C(=O)O)C1CCCCC1; ξPhg = NC(C(=O)O)c1ccccc1; Orn = NCCC[C@H](N)C(=O)O; X86 = CC(CC(=O)O)CC(=O)*; Boc = CC(C)(C)OC(=O)*; ξNle = CCCCC(N)C(=O)O; Bn = c1ccc(C*)cc1; OtBu = CC(C)(C)O*; Ms = CS(=O)(=O)*; tBu = CC(C)(C)*; OAll = C=CCO*
